Test results as given in PubChem BioAssay AID504832 (National Center for Advancing Translational Sciences (NCATS), 2011).
About 18,000 (5.8%) of roughly 310,000 compounds were called active. Inconclusive means that the source gave no clear call. Such entries were picked first, then a sample of the others. The call rests on the fitted dose curve; in most records, active means well fitted inhibition curve with a large enough effect; inconclusive means small, poorly fitted or top-dose-only effect, or another doubt; inactive means no such curve, though single readings can be large or run the other way. No potency is given beside an inconclusive call; the fits are too rough.
On the % scale 0 is the no-effect control and ±100 the full control effect; potency means the concentration at half of the fitted maximal effect; tags describe the fitted curve by direction and shape.

Assay: Primary qHTS for delayed death inhibitors of the malarial parasite plastid, 48 hour incubation
Details: P. falciparum luciferase growth in erythrocytes; series mostly up to 28.7 µM; activity change, negative = inhibition: at the top concentration
Outline: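 Compounds are pin-transferred into medium, infected erythrocytes (2% hematocrit, 0.1% parasitemia final) are added, and plates sit one parasite generation at 37 C in 5% CO2. Detection reagent is then added and luminescence measured.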
With `CCCCn1c(=O)c(C(=O)Nc2ccccn2)c(O)c2ccccc21` the “activity change, negative = inhibition” value was inactive: 7.6%. With `CCOC(=O)N1CCN(C(=O)c2ccccc2N(Cc2ccccc2)S(=O)(=O)c2ccccc2)CC1` the Potency was active: 4.65 µM. With `Nc1nc2ccc([N+](=O)[O-])cc2[nH]1` the Potency was inconclusive [inhibitor, full curve, poor fit]. For `C/C(=N/NC(=O)c1cnccn1)c1cccs1`, the “activity change, negative = inhibition” value was inactive: 134%. In the case of `CC(=O)c1ccc(NC(=O)c2cc(-c3cccs3)on2)cc1`, the “activity change, negative = inhibition” value is reported as inactive: 65.8%. With `CCCC(=O)Nc1c2c(nn1-c1ccc([N+](=O)[O-])cc1)CS(=O)(=O)C2` the “activity change, negative = inhibition” value was inactive: 20.8%. With `O=C(CCN1CCN(Cc2ccccc2)CC1)NNC(=O)Nc1cccc(Cl)c1` the Potency was inconclusive [inhibitor, single point]. With `CCS(=O)(=O)Nc1cccc(C2=NN(C(=O)c3ccco3)C(c3ccco3)C2)c1` (centres undefined) the Potency was inconclusive [inhibitor, partial curve, poor fit]. With `COc1cc2nc(=S)n3[nH]c(CCn4c(C)nc5ccccc54)nc3c2cc1OC` the Potency was inconclusive [inhibitor, partial curve, poor fit]. In the case of `Cc1ccc(N=C2CCCN2Cc2ccccc2)c(C#N)c1`, the “activity change, negative = inhibition” value is reported as inactive: 8.79%. With `O=c1cc[nH]c2ccc(Cl)cc12` the “activity change, negative = inhibition” value was inactive: 23.2%. With `O=c1[nH]c(/C=C/c2cccc([N+](=O)[O-])c2)c([N+](=O)[O-])c(=O)[nH]1` the Potency was inconclusive [inhibitor, single point]. With `CCCNC(=O)C(Cc1ccc(F)cc1)NC(=O)c1ccc(C#N)cc1` (centres undefined) the Potency was inconclusive [inhibitor, partial curve, poor fit]. In the case of `CCN(CC(=O)Nc1ccccc1C(F)(F)F)C(=O)CCc1nc2sc3c(c2c(=O)[nH]1)CCCC3`, the Potency is reported as inconclusive [inhibitor, single point]. With `Cc1cccc(C)c1NC(=O)CN(C)C(=O)CCC(=O)c1ccccc1` the Potency was inconclusive [inhibitor, single point]. With `Clc1ccccc1CSc1ncn(-c2ccccc2)n1` the “activity change, negative = inhibition” value was inactive: 313%. In the case of `COc1ccc(C)cc1Nc1n[n+](C)c(-c2ccc(C(=O)O)cc2)s1`, the “activity change, negative = inhibition” value is reported as inactive: -3.23%. In the case of `CC1(C)CC(=O)c2cnc(NC(=O)CSC(=S)N3CCCCC3)nc2C1`, the “activity change, negative = inhibition” value is reported as inactive: 12.5%. For `c1ccc(N(c2ccccc2)c2nc(N3CCCC3)nc(-n3ccnc3)n2)cc1`, the Potency was active: 5.86 µM. With `C/C(=N\S(=O)(=O)c1ccc(C)cc1)N(C)C` the Potency was inconclusive [inhibitor, single point]. With `CO/N=C(/C)CCS(=O)(=O)c1ccccc1` the Potency was inconclusive [inhibitor, single point]. In the case of `Cc1ccc2[nH]c(=O)c(COC(=O)c3cccs3)cc2c1`, the “activity change, negative = inhibition” value is reported as inactive: -6.22%. With `Cn1nc(C(=O)NCC(=O)Nc2ccc(F)c(F)c2F)c2ccccc2c1=O` the Potency was inconclusive [inhibitor, single point]. In the case of `O=Cc1ccc(OCc2ccc3c(c2)OCO3)cc1`, the “activity change, negative = inhibition” value is reported as inactive: -13.1%. For `Cc1ccc(-n2nc3c(=O)n(C(C)C(=O)NCc4ccccc4Cl)nc(C)c3c2C)cc1` (centres undefined), the Potency was inconclusive [inhibitor, partial curve]. In the case of `Cc1ccc(-n2cccn2)c(CN2CCC(CO)(CCc3ccccc3)CC2)c1`, the Potency is reported as inconclusive [inhibitor, partial curve, poor fit]. With `CCN(CC)c1ccc(N2C(=O)CSC2=S)cc1` the Potency was inconclusive [inhibitor, single point]. In the case of `CCOC(=O)c1cn2nc(Oc3ccc(C)cc3)ccc2n1`, the Potency is reported as inconclusive [inhibitor, single point]. With `CCc1nnc(N/N=C/c2ccc(N3CCC(C)CC3)c([N+](=O)[O-])c2)n1N` the Potency was inconclusive [inhibitor, single point]. For `CCOC(=O)[C@@H]1[C@H]2COc3ccc(Br)cc3[C@H]2N2C(=O)N(c3ccc(F)cc3)C(=O)[C@@]12C`, the Potency was active: 5.86 µM. With `CC(=O)NC1(C(=O)O)CCCC1` the “activity change, negative = inhibition” value was inactive: 41.7%. For `COC(=O)c1sccc1-n1cccc1C(=O)C(=O)N1CCOCC1`, the “activity change, negative = inhibition” value was inactive: 22.6%. With `O=C(CCN1C(=O)/C(=C/c2ccccc2F)SC1=S)NC1C=CS(=O)(=O)C1` (centres undefined) the Potency was inconclusive [inhibitor, single point]. For `COc1ccc(N=Nc2cc(C)c(O)c(CN3CCCCC3)c2)cc1`, the Potency was active: 0.262 µM. In the case of `CCCCNC(=O)c1c(N)n(CCCOC)c2nc3ccccc3nc12`, the Potency is reported as inconclusive [inhibitor, single point]. In the case of `CCNc1nc(NCC)n2c(SCC(=O)Nc3ccccc3Cl)nnc2n1`, the Potency is reported as inconclusive [inhibitor, single point]. With `Cc1cc2nnc(SCC(=O)N(C)C3CCS(=O)(=O)C3)n2c2ccccc12` (centres undefined) the “activity change, negative = inhibition” value was inactive: 3.45%. In the case of `COc1ccc(NC(=O)CN2CCN(c3ccccc3)CC2)cc1`, the “activity change, negative = inhibition” value is reported as inactive: 3.55%. In the case of `Cc1cnc(C(=O)Nc2cccc3cccnc23)cn1`, the Potency is reported as active: 0.37 µM. With `CCCC(=O)NC(c1ccc(Cl)cc1Cl)c1ccc2cccnc2c1O` (centres undefined) the Potency was inconclusive [inhibitor, full curve, poor fit]. In the case of `O=c1c(S(=O)(=O)c2ccc(Cl)cc2)cn(Cc2ccccc2F)c2ccc(F)cc12`, the Potency is reported as inconclusive [inhibitor, partial curve, poor fit]. In the case of `CCCCn1c(N)c(N(Cc2ccccc2OC)C(=O)CCC(C)C)c(=O)[nH]c1=O`, the “activity change, negative = inhibition” value is reported as inactive: 8.26%. In the case of `Cc1ccsc1/C=C(\C(=O)c1ccc(OC(C)C)cc1)c1nc2ccccc2o1`, the Potency is reported as inconclusive [inhibitor, single point]. In the case of `COc1ccc(NC(=O)C/C(C)=N/NC(=O)c2cccs2)c([N+](=O)[O-])c1`, the “activity change, negative = inhibition” value is reported as inactive: 17.6%. For `CCc1ccc(Oc2cc(C)nc(N)n2)cc1`, the “activity change, negative = inhibition” value was inactive: 191%. With `CCOC(=O)CNC(=O)COc1coc(CN2CCN(c3ccc(F)cc3)CC2)cc1=O` the “activity change, negative = inhibition” value was inactive: 6.8%. In the case of `CCOC(=O)C1CCN(C(=O)c2ccccc2NS(=O)(=O)c2ccc(F)cc2)CC1`, the “activity change, negative = inhibition” value is reported as inactive: -28.4%. For `Cc1ccc(CNC(=O)[C@H](C)N2C(=O)N3CCc4c([nH]c5ccccc45)[C@@]3(C)C2=O)cc1`, the Potency was inconclusive [inhibitor, single point]. In the case of `NS(=O)(=O)c1cc2c(cc1Cl)N[C@H](Cc1ccccc1)NS2(=O)=O`, the “activity change, negative = inhibition” value is reported as inactive: 12.6%. In the case of `CCOC(=O)N1C(=O)[C@@](c2ccc(Cl)cc2)(C(C)C)N1C(=O)OCC`, the Potency is reported as inconclusive [inhibitor, full curve, poor fit]. In the case of `COc1ccc(N(CC(=O)N/N=C/c2cccc(OC)c2OC)S(=O)(=O)c2ccccc2)cc1`, the Potency is reported as inconclusive [inhibitor, partial curve]. For `O=C(CC1SC(N2CCCC2)=NC1=O)Nc1ccc(C(=O)N2CCN(c3cccc(Cl)c3)CC2)cc1` (centres undefined), the Potency was active: 8.28 µM. For `COC(=O)CCCC1=CC2=C(c3ccccc3)C(=O)C(C)(OC(=O)C3CCCC3)C(=O)C2=CN1c1ccc(OC)cc1` (centres undefined), the Potency was inconclusive [inhibitor, single point]. For `COC(=O)[C@@H]1CC[C@H](C)[C@@H](c2ccc(C)cc2)N1C(=O)c1ccc(/C=N/OC[C@@H](O)[C@H]2O[C@@H]3OC(C)(C)O[C@@H]3[C@H]2O)cc1`, the Potency was inconclusive [inhibitor, single point]. For `Cc1cc(N2CCN(C(=O)c3ccco3)CC2)n2nc(-c3cccc(Cl)c3)cc2n1`, the Potency was active: 9.28 µM. With `COc1ccc(C(=O)/C=C/C(=O)N(CC(=O)NC2CCCCC2)CC2CCCO2)c(O)c1` (centres undefined) the Potency was inconclusive [inhibitor, single point]. For `CCOC(=O)/C(=N\Nc1cc(Cl)ccc1Cl)N1CCN(CC)CC1`, the Potency was inconclusive [inhibitor, single point]. In the case of `O=C(CSc1nnc(NC(=O)C2CC(=O)N(c3ccc(F)cc3)C2)s1)NCc1ccco1` (centres undefined), the Potency is reported as inconclusive [inhibitor, single point]. In the case of `Cc1cccc(NC(=O)c2ccc(N(C)C3CCCCC3)c([N+](=O)[O-])c2)n1`, the Potency is reported as inconclusive [inhibitor, partial curve, poor fit]. With `CCN(CC)S(=O)(=O)c1ccc2oc(C(=O)Nc3ccc(OC)cc3OC)c(C)c2c1` the Potency was inconclusive [inhibitor, partial curve, poor fit]. With `O=C(/C=C/c1ccc2c(c1)OCO2)NCCSCc1ccc(Cl)cc1` the “activity change, negative = inhibition” value was inactive: 32.2%. For `CSc1ncc(C(=O)Nc2ccc(C(C)=O)cc2)c(-c2ccccc2)n1`, the “activity change, negative = inhibition” value was inactive: 12.6%. In the case of `CCOCCn1c(CN2CCC(Cc3ccccc3)CC2)nc2c1c(=O)n(C)c(=O)n2C`, the Potency is reported as inconclusive [inhibitor, full curve, poor fit]. For `Cc1ccc(NC(=O)CC(C)S(=O)(=O)c2ccc3c(c2)NC(=O)CO3)cc1C` (centres undefined), the Potency was inconclusive [inhibitor, partial curve, poor fit]. For `Cc1ccc(N(CC(=O)Nc2ccc(C)cn2)S(=O)(=O)c2c(C)nn(C)c2C)cc1`, the Potency was inconclusive [inhibitor, single point]. In the case of `CCOc1ccc(S(=O)(=O)N2CCCC(C(=O)N3CCOCC3)C2)cc1` (centres undefined), the Potency is reported as inconclusive [inhibitor, full curve]. With `Cc1cc(Cl)c2oc(C(=O)N3CCN(C(=O)c4ccco4)CC3)c(C)c2c1` the Potency was inconclusive [inhibitor, single point]. For `CCOc1ccc(C(=O)NCC(=O)N2CCN(C/C=C/c3ccccc3)CC2)cc1OCC`, the Potency was inconclusive [inhibitor, single point]. With `CC(C)(C)N(Cc1ccccc1)C(=O)CSc1nc2ccccc2c(=O)[nH]1` the Potency was inconclusive [inhibitor, single point].
